“And” between values parts separate entries of the source, which are not always exact repeats. Equal entries are not always repeated. Screen size: about 420,000 compounds; about 50,000 (12%) were called active. The shares of active, inactive and inconclusive entries below differ from those in the screen. The call rests on the fitted dose curve; in most records, active means well fitted inhibition curve with a large enough effect; inconclusive means small, poorly fitted or top-dose-only effect; inactive means flat fitted curve, though single readings scatter. Potencies beside an inconclusive call are fits to weak or partial responses and may not hold up.
Assay: qHTS for Inhibitors of human tyrosyl-DNA phosphodiesterase 1 (TDP1): qHTS in cells in presence of CPT; further: nearly all actives have a fitted effect of over 55% in size
Conditions: chicken DT40 Tdp1-/-;hTDP1 cells + 20 nM CPT, ATP luminescence, 48 h; activity change, negative = growth inhibition: at 46.2 µM (top of the series)
Method in brief: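 Chicken DT40 Tdp1-/- cells stably complemented with human TDP1 were seeded at 400 cells/well in medium containing 20 nM camptothecin, exposed to pin-transferred compounds, and grown at 37 °C for at least 48 hr. Viability was read as ATP luminescence.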
On the % scale 0 is the no-effect control and ±100 the full control effect; potency means the concentration at half of the fitted maximal effect; tags describe the fitted curve by direction and shape.

Row | SMILES | Potency | activity change, negative = growth inhibition
1 | COc1cc(OC)cc(C(=O)NC(C(=O)Nc2ccc3c(c2)CCC3)C(C)C)c1 (stereo not given) | inconclusive: 18.4 µM [inhibitor, single point] | 
2 | CCOC(=O)c1ccc(-n2cnc(-c3ccc([N+](=O)[O-])cc3)c2)cc1 | inconclusive: 29.1 µM [inhibitor, partial curve, poor fit] | 
3 | Nc1ccc(Cl)c(S(=O)(=O)Nc2ccc(Cl)cc2)c1 |  | inconclusive: -32.5% [inhibitor]
4 | CC(NC=O)c1nc2ccccc2n1CCc1ccccc1 (stereo not given) | inconclusive: 20.6 µM [inhibitor, partial curve] | 
5 | CN(C)CCOc1ccc(C(C)(C)c2ccccc2)cc1 | inconclusive: 23.1 µM [inhibitor, single point] | 
6 | O=C(Cn1nnc(-c2ccc(F)cc2)n1)Nc1cccc(S(=O)(=O)N2CCCC2)c1 | active: 20.6 µM | 
7 | Cc1cccc(C)c1-n1nnnc1C1(C)CCC(=O)N1CCc1ccccc1F (stereo not given) | inconclusive: 20.6 µM [inhibitor, single point] | 
8 | Cc1ccc(CN2CCN(Cc3nc4ccccc4nc3C)CC2CCO)cc1 (stereo not given) | inconclusive: 23.1 µM [inhibitor, single point] | 
9 | COc1cc(NC(=O)c2ccccc2)c(C)cc1NC(=O)CC(CC(=O)O)c1ccccc1 (stereo not given) | inactive | 
10 | O=C1c2c(Cl)c(Cl)c(Cl)c(Cl)c2C(=O)N1c1nccs1 | inconclusive: 29.1 µM [inhibitor, single point] | 
11 | O=C(CN1C(=O)/C(=C/c2ccc(F)cc2)SC1=S)NC1CCS(=O)(=O)C1 (stereo not given) | inactive | 
12 | CN(C)S(=O)(=O)c1ccc(C(=O)Nc2ccc(S(=O)(=O)NC3=NCCCCC3)cc2)cc1 | inactive | 
13 | Cc1c(CC(=O)Nc2ccc(Cl)cc2)sc2ccc(Cl)cc12 | inconclusive: 29.1 µM [inhibitor, single point] | 
14 | Cc1ccc(Cl)cc1NC(=O)Cn1ncc2c(C)n(Cc3ccccc3F)c(C)c2c1=O | inconclusive: 29.1 µM [inhibitor, single point] | 
15 | COCCNc1nc(SC)nc2sc3c(c12)CCN(C)C3 | inactive | 
16 | CCNC(=O)c1c(NC(=O)c2cc(-c3cc(C)ccc3O)n[nH]2)sc2c1CCCC2 | inconclusive: 18.4 µM [inhibitor, single point] | 
17 | C/C(=N\O)c1sc(-c2ccccc2)nc1C | inactive | 
18 | CN(C(=O)Cn1nc(Cl)ccc1=O)C1CCCN(Cc2ccccc2F)C1 (stereo not given) | inactive | 
19 | O=C(COc1ccccc1C(=O)Nc1ccccc1)Nc1cccc([N+](=O)[O-])c1 | active: 12.6 µM | 
20 | O=C(Nc1cccc(OC(F)(F)F)c1)C1Cc2c(-c3cccc(F)c3)ccnc2O1 (stereo not given) | inconclusive: 29.1 µM [inhibitor, single point] | 
21 | Fc1ccc(NC(=S)NN=Cc2ccccc2Cl)cc1 | active: 2.31 µM | 
22 | CN(c1ccccc1)c1nc(N)c([N+](=O)[O-])c(Nc2ccccc2F)n1 | inconclusive: 18.4 µM [inhibitor, single point] | 
23 | O=C(C[n+]1cccc(C(=O)Nc2ccccc2)c1)c1ccc(Cl)cc1 | inconclusive: 23.1 µM [inhibitor, single point] | 
24 | CCOC(=O)Cn1c(=NC(=O)CSC(C)=O)sc2cc(F)ccc21 | inconclusive: 16.4 µM [inhibitor, single point] | 

Row | SMILES | Potency | activity change, negative = growth inhibition
25 | O=C(/C=C/c1ccc(-c2cccc([N+](=O)[O-])c2)o1)N1CCOCC1 | active: 16.4 µM | 
26 | CCOc1ccc(CCNC(=O)c2ccc3c(c2)sc2nc(-c4ccc(F)cc4)cn23)cc1OCC | active: 7.31 µM | 
27 | CC(=O)c1sc(NC(=O)COc2ccc(C)c(C)c2)nc1C | inactive | 
28 | O=S(=O)(NCCc1csc2nc(-c3ccc(F)cc3)nn12)c1ccc(Oc2ccccc2)cc1 | active: 14.6 µM | 
29 | Cc1[nH]nc2c1C(c1cccc(O)c1)C1=C(CC(C)(C)CC1=O)N2 (stereo not given) | inactive | 
30 | Cc1cc(C)cc(N2C(=O)CCSC23C(=O)N(Cc2ccccc2)c2ccccc23)c1 (stereo not given) | active: 5.8 µM | 
31 | Cc1ccc(C(C(=O)NC2CCCCC2)N(Cc2cccnc2)C(=O)C2COc3ccccc3O2)o1 (stereo not given) | inconclusive: 9.2 µM [inhibitor, partial curve] | 
32 | C=CCN1C(=O)c2ccc(C(=O)N3CCN(S(=O)(=O)c4cccc(F)c4)CC3)cc2C1=O | inactive | 
33 | Cc1[nH]nc2c1C1(CCN(C(=O)OCc3ccccc3)CC1)C(C#N)=C(N)O2 | inactive | 
34 | CC(=O)Nc1ccc(-c2ccnc3c2CC(C(=O)Nc2ccc(Cl)c(C(F)(F)F)c2)O3)cc1 (stereo not given) | active: 20.6 µM | 
35 | COc1ccc(CNc2nc(-c3ccc(N(C)C)cc3)nc3ccccc23)c(OC)c1 | active: 4.11 µM | 
36 | COc1cccc2sc(=NC(=O)CCS(=O)(=O)c3ccc(C)cc3)n(C)c12 | inconclusive: 16.4 µM [inhibitor, single point] | 
37 | CC(C)c1ccc(NC(=O)CCn2c(=O)c3cccn3c3ccccc32)cc1 | active: 20.6 µM | 
38 | COc1ccccc1CN1CCCC2(CCNCC2)C1 | inconclusive: 29.1 µM [inhibitor, single point] | 
39 | CCN1C[C@@H]2[C@@H]3C(=O)N(C)C(=O)[C@@H]3[C@](CC)(C1=O)N2C(=O)c1ccc(C)cc1 | inactive | 
40 | Cc1cc(C(=O)NNC(=O)c2ccccc2O)c(C)o1 | inconclusive: 29.1 µM [inhibitor, single point] | 
41 | CCOCCCn1c(SCC(=O)Nc2ccccc2OC)nc2ccccc2c1=O | inconclusive: 29.1 µM [inhibitor, single point] | 
42 | COc1cccc(CNCCSc2nnnn2C)c1OCc1ccc(F)cc1 | inconclusive: 20.6 µM [inhibitor, single point] | 
43 | O=C1Nc2ccccc2O/C1=C\c1ccccc1Br | inactive | 
44 | Cc1nc(-c2ccc(S(=O)(=O)N3CCN(C(c4ccccc4)c4ccccc4)CC3)s2)cs1 | inconclusive: 20.6 µM [inhibitor, single point] | 
45 | CCOc1ccc2c3c(c(=O)oc2c1OCC)CCCC3 | inconclusive: 16.4 µM [inhibitor, single point] | 
46 | COc1cccc(NC(=O)N(Cc2c[nH]c3ccccc23)C2CCCCC2)c1 | active: 8.2 µM | 
47 | COc1ccc(NC(=O)C2CCCN2S(=O)(=O)c2cccc3cccnc23)c(OC)c1 (stereo not given) | inconclusive: 16.4 µM [inhibitor, single point] | 
48 | Cc1ccc(C(CC(=O)Nc2ccc(F)c(Cl)c2)N2Cc3ccccc3C2=O)cc1 (stereo not given) | inconclusive: 20.6 µM [inhibitor, partial curve, poor fit] | 

Row | SMILES | Potency | activity change, negative = growth inhibition
49 | Cc1ccc(NC(=O)c2cnn(-c3ccccc3)c2C)cc1 | inactive | 
50 | CCOC(=O)c1[nH]c(C)c(CCC(=O)Nc2ccc(Br)c(C)c2)c1C | inconclusive: 29.1 µM [inhibitor, single point] | 
51 | Cc1ccc(NC(=S)NCC(O)c2ccccc2)c(C)c1 (stereo not given) |  | inconclusive: -31.3% [inhibitor]
52 | O=C(/C=C/c1cccs1)NC(=S)Nc1ccccc1 | inconclusive: 23.1 µM [inhibitor, single point] | 
53 | CCN(CC)CCn1c(SCC(=O)Nc2ccc3c(c2)CCC3)nc2ccccc2c1=O | inconclusive: 25.9 µM [inhibitor, single point] | 
54 | Cc1nc2sccn2c(=O)c1S(=O)(=O)Nc1ccc(N2CCN(C(=O)C(C)C)CC2)cc1 | inconclusive: 20.6 µM [inhibitor, single point] and inconclusive: 29.1 µM [inhibitor, single point] | 
55 | COc1cc(C(=O)Nc2nonc2-c2ccc(Cl)cc2)cc(OC)c1OC | inconclusive: 29.1 µM [inhibitor, single point] | 
56 | CC(C)(C)S(=O)N1Cc2ccc(CO)cc2[C@@H]1CCO (stereo not given in full) | inconclusive: 20.6 µM [inhibitor, single point] | 
57 | N#CCC(CNc1ncc(C(F)(F)F)cc1Cl)OC(=O)c1ccc(Cl)cc1Cl (stereo not given) | inactive | 
58 | COC(=O)c1ccc(NC(=O)CC2C(=O)N(c3ccccc3)C(=O)N2Cc2ccco2)cc1 (stereo not given) | inconclusive: 13 µM [inhibitor, partial curve] | 
59 | CCCCCCOC(=O)C(C#N)c1nc2ccccc2nc1N1CCOCC1 (stereo not given) | inconclusive: 29.1 µM [inhibitor, single point] | 
60 | CC(=O)Nc1ccccc1OCC(=O)N(Cc1ccccc1)C(C)C | active: 16.4 µM | 
61 | COc1cc(C(=O)OCC(=O)NCCC2=CCCCC2)ccc1OCC(C)C | inconclusive: 25.9 µM [inhibitor, single point] | 
62 | CCCCCc1nn2cc(-c3ccccc3)nc2s1 | inconclusive: 29.1 µM [inhibitor, single point] | 
63 | CCOc1ccc(S(=O)(=O)NCc2ccncc2)cc1NC(=O)c1ccccc1F | inactive | 
64 | CCOc1ccc(NC(=O)CSc2nnc(Cn3cnc([N+](=O)[O-])n3)n2CC)cc1 | inactive | 
65 | Cc1ccc(S(=O)(=O)NNC(=O)c2cnn(-c3ccccc3)c2-n2cccc2)cc1 | active: 1.64 µM | 
66 | CCCc1cnc2c(c1SCC(=O)Nc1ccccc1F)c(=O)n(C)c(=O)n2C | inconclusive: 29.1 µM [inhibitor, single point] | 
67 | N#Cc1c(N2CCSCC2)nsc1-c1ccccc1Cl | inconclusive: 29.1 µM [inhibitor, single point] | 
68 | CCC(C)n1c(SCC(=O)NC(=O)Nc2ccc3c(c2)OCCO3)nc2ccccc2c1=O (stereo not given) | inconclusive: 29.1 µM [inhibitor, single point] | 
69 | Cc1cccc(CNC(=O)C2CCN(S(=O)(=O)c3ccc4c(c3)CCCN4C(=O)C3CCC3)CC2)c1 | active: 13 µM | 
70 | CN(Cc1cccc2cnccc12)C(=O)c1cc(COc2ccc(F)cc2F)on1 | inconclusive: 16.4 µM [inhibitor, single point] | 
